PubChem BioAssay AID1963576 (National Center for Advancing Translational Sciences (NCATS), 2024)
Hit rate of the full screen: of about 46,000 compounds, about 60 (0.1%) were called active. Another 3% or so got no clear call; they are omitted. Calls follow the shape of the dose curve; as a rule, active = well fitted inhibition curve with a large enough effect; inconclusive = small, poorly fitted or top-dose-only effect; inactive = no such curve, though single readings can be large or run the other way. This is one part of the list.

Test: Primary qHTS assay for Inhibitors of ovarian cancer metastasis using an organotypic tumor microenvironment (TME) model. Also: nearly all actives have a fitted effect of over 65% in size.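 As to activity change, negative = inhibition: plate controls were DMSO wells for no effect and tomatine positive control wells for full effect.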
Settings: SKOV3ip1-GFP adhesion/invasion on 3D omental model, fluorescence; series mostly up to 45.8 µM; activity change, negative = inhibition: at the top concentration
How it was run: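 Adhesion/invasion was scored as fixed GFP-labeled SKOV3ip1 cell counts (488/509 nm), normalized to DMSO and tomatine controls. Cancer cells in serum-free medium, with four compound doses (0.36-46 umol/L), sat 2 hr at RT then 16 hr at 37 C on a 48 hr fibroblast/mesothelial/ECM culture.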

Row | Compound | activity change, negative = inhibition | outcome
1 | Cc1ccc(NC(=O)C(=O)NCC(c2cccnc2)N2CCN(Cc3ccccc3)CC2)cc1C (stereo not drawn) | inactive: 1.06% | –
2 | COc1ccccc1OCCn1c(NC(=O)c2ccccc2Cl)nc2ccccc21 | inactive: -30.4% | –
3 | Cc1cc(C)c(Nc2nc3ccccc3n3c(C)nnc23)c(C)c1 | inactive: -12% | –
4 | CCOc1ccc(-c2cc(C(=O)N3CCN(c4cc(Cl)ccc4C)CC3)c3ccccc3n2)cc1 | inactive: -0.317% | –
5 | CNc1c(NC(=O)c2ccc(OC)c(OC)c2)c(=O)oc2ccccc12 | inactive: -20.6% | –
6 | CCOC(=O)C1=C(CN2CCN(c3ccc(OC)cc3)CC2)NC(=O)NC1c1ccc(OC)cc1 (stereo not drawn) | inactive: -13.7% | –
7 | Cc1ccc(Nc2nc3nonc3nc2Nc2cccc(C(F)(F)F)c2)cc1Cl | inactive: -16% | –
8 | COc1ccc(NC(=O)Cn2cc(S(=O)(=O)N3CCN(c4ccccc4F)CC3)c3ccccc3c2=O)cc1Cl | inactive: 6.8% | –
9 | CCN(CC)CCCNc1oc(/C=C/c2ccc(OC)c(OC)c2)nc1C#N | inactive: -7.56% | –
10 | Cc1ccc(NC(=O)CSc2nnc3scc(-c4ccc(Cl)cc4)n23)cc1 | inactive: 2.25% | –
11 | COc1cccc(CNC(=O)C2CCC(CNS(=O)(=O)c3ccc4c(c3)CCCC(=O)N4)CC2)c1 (stereo not drawn) | – | inactive
12 | CCN(CC)C(=O)Cn1c(=O)cc(C)c2c(C)nn(-c3cccc(Cl)c3C)c21 | inactive: -3.3% | –
13 | CCc1ccc(C(=O)c2cn(CC(=O)Nc3ccc4c(c3)OCO4)c3ccc(CC)cc3c2=O)cc1 | – | inactive
14 | Cc1cc2c(cc1S(=O)(=O)CCC(=O)N1CCC(C)CC1)OCC(=O)N2 | inactive: 4.51% | –
15 | Cc1cc(C)cc(NC(=O)NCCc2c(C)nn(C)c2C)c1 | inactive: -0.161% | –
16 | CN(C)c1nc(Cc2ccc(NC(=O)c3ccc(C(F)(F)F)cc3)cc2)nc(N(C)C)c1CC(=O)O | inactive: -3.78% | –
17 | CC(C)c1nn2c(=O)cc(COC(=O)c3cccc(NC(=O)COc4ccc(F)cc4)c3)nc2s1 | – | inactive
18 | Cc1ccc(S(=O)(=O)n2nc(C)c(S(=O)(=O)N3CCCCCC3)c2C)cc1 | – | inactive
19 | Cc1ccc(C)c(CSc2nnc3[nH]c(=O)cc(C)n23)c1 | – | inactive
20 | CC(=O)N1CCCc2cc(S(=O)(=O)N3CCCC(C(=O)N4CCN(c5cccc(Cl)c5)CC4)C3)ccc21 (stereo not drawn) | inactive: -0.159% | –
21 | CCOc1cc2sc(N3CCC(C(=O)Nc4ccc(CC)cc4)CC3)nc2cc1Br | inactive: 0.157% | –
22 | CCc1ccc(C(=O)c2cn(CC(=O)Nc3ccc(Cl)cc3)c3cc4c(cc3c2=O)OCO4)cc1 | – | inactive
23 | CCOc1ccc(CNC(=O)c2cccc(NC(=O)N3CCSc4ncccc43)c2)cc1OC | – | inactive
24 | CC(C)C(=O)Nc1nnc2n1CCS2 | inactive: 29.3% | –

Row | Compound | activity change, negative = inhibition | outcome
25 | CCC(Cn1nnc2ccccc2c1=O)NC(=O)Nc1cc(C)cc(C)c1 (stereo not drawn) | – | inactive
26 | Cc1cc2c(n1-c1ccc(C(=O)NCCc3ccc(Cl)cc3)cc1)CCCC2 | inactive: -2.39% | –
27 | CCOC(=O)[C@@H](N)CCC(=O)N[C@@H](CSCc1ccccc1)C(=O)N[C@@H](C(=O)OCC)c1ccccc1 | inactive: 4.33% | –
28 | Cc1nc(N2CCCC2)c2c(C(=O)N3CCN(c4ccccc4)CC3)c(C)oc2n1 | inactive: -9.3% | –
29 | COc1ccc(C2C(C(=O)Nc3ccccc3)=C(C)Nc3c(C(=O)Nc4ccccc4)cnn32)cc1 (stereo not drawn) | – | inactive
30 | COc1ccc(C)cc1NC(=O)c1noc2c1CSc1ccccc1-2 | inactive: -0.315% | –
31 | Cc1ccc(C)c(CSc2nc(-c3ccccc3F)nc3c2Cc2c(CO)cnc(C)c2O3)c1 | inactive: -3.86% | –
32 | COCCCNc1nc(NCc2ccccc2OC)c2cnn(C)c2n1 | inactive: -3.18% | –
33 | Cc1ccc(C)c(N2CCN(C(=O)c3cn(CC(C)C)c(=O)c4c3c3ccccc3n4C)CC2)c1 | inactive: -10.6% | –
34 | Cc1ccc(NC(=O)C2(c3cccs3)CCOCC2)cc1Cl | inactive: -10.3% | –
35 | COc1ccc(Br)cc1C1C(C(=O)Nc2ccc(C)cc2C)=C(C)Nc2ncnn21 (stereo not drawn) | – | inactive
36 | CS(=O)(=O)N1CCc2cc(C(=O)N3CCN(c4cccc(Cl)c4)CC3)ccc21 | inactive: -27.3% | –
37 | Cc1ccc(NC(=O)C2(c3ccc4c(c3)OC(F)(F)O4)CC2)nc1-c1cccc(C(=O)O)c1 | inactive: -6.05% | –
38 | COCCNC(=O)CCC(=O)NNc1nc2ccccc2c2nc(C)nn12 | inactive: -8.92% | –
39 | CCOc1ccccc1NC(=O)c1c(NC(=O)COc2ccc(Cl)cc2)sc2c1CCCCC2 | inactive: 2.52% | –
40 | Cc1ccc2c(CNCCc3ccccc3)c(C(=O)O)n(Cc3ccccc3C)c2c1 | inactive: -8.55% | –
41 | O=C(NCCc1ccccc1)c1nn(-c2ccccc2F)nc1CO | – | inactive
42 | COc1cccc(NC(=O)Cn2nnc(C(=O)NCc3cccs3)c2N)c1 | inactive: 0.49% | –
43 | COc1ccc(NC(=O)Cn2c(=O)n(-c3cc(C)cc(C)c3)c(=O)c3oc4ccccc4c32)cc1OC | inactive: -1.43% | –
44 | CCS(=O)(=O)N1CCCC(C(=O)NCCOC)C1 (stereo not drawn) | inactive: -11.8% | –
45 | Cc1ccc(C(=O)c2cn(CC(=O)Nc3ccc(C(C)C)cc3)c3nc(C)ccc3c2=O)cc1 | inactive: 0.731% | –
46 | Cc1ccc(NC(=O)CSc2nnc(-c3ccc([N+](=O)[O-])cc3)o2)c(C)c1 | inactive: -0.139% | –
47 | CCCCCn1c(NCc2ccc(OC)cc2)nc2ccccc21 | inactive: -0.693% | –
48 | Cc1ccccc1N1CCN(S(=O)(=O)c2nnc(NC(=O)c3ccc(C(C)C)cc3)s2)CC1 | inactive: 3.93% | –
